The data set relates to ATP. Nature of the data set: switch fluorescence ratio, 500 uM ATP over buffer (Cy3 cluster intensity, sum of 5 cycles each) (fold (ratio)); higher = stronger signal-on switching upon ATP binding; sequences stand for … in TCGTCGGCAGCGTCAGATGTGTATAAGAGACAGTTTTTTTTTTTTTTTTTTTTTTTTT…TC. Conditions: aptamer strand: ATP DNA aptamer (quencher-CACCTGGGGGAGTATTGCGGAGGAAGG + anchor), 100 nM annealed; ATP concentration: 500 uM; one replicate. In outline:
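Switching-strand clusters labelled with Cy3 on a modified Illumina MiSeq flow-cell were annealed to 100 nM quencher-labelled ATP aptamer, imaged in selection buffer, and re-imaged after 15 min with 500 uM ATP at 22 °C. This was done over five cycles with NaOH stripping and re-annealing in between. The fluorescence ratio is summed target-cycle over summed buffer-cycle Cy3 intensity per cluster, averaged per switch-domain sequence, excluding clusters outside 100-1000 RFU.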

Values marked as one replicate rest on one cluster of the flow cell; about a third of the high ones do not repeat.
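Also: ATP exposure 15 min at 22 °C before imaging.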

Turning to TTCCATTCT, the switch fluorescence ratio was found to be 0.959.

Regarding TAATGTGGA, the switch fluorescence ratio stood at 1.02.

Turning to TTTGAAACAT, the switch fluorescence ratio turned out to be 1.05.

As to AACAGGAAC, the switch fluorescence ratio amounted to 1.02.

For the sequence GACAGGCGCT, the switch fluorescence ratio worked out at 1.06.

Regarding CCCGCTCTTC, the switch fluorescence ratio came to 1.34.

For GCCGTGTGTC, the switch fluorescence ratio is 0.969.

CCGTAATTTA: the switch fluorescence ratio was 1.8.

In the case of TAAGTGTA, the switch fluorescence ratio stood at 0.968.

TTCCTATTAA: the switch fluorescence ratio came to 1.

On to CAAGTAAGGC, for which the switch fluorescence ratio stood at 1.04.

Turning to ATTGCATTAT, the switch fluorescence ratio turned out to be 1.

As to ATGAACAATG, the switch fluorescence ratio was 1.01.

Take AGTTGTTCCT: the switch fluorescence ratio came out at 1.03.

CAGGGAAGTG: the switch fluorescence ratio was found to be 0.909.

GCAGACAATC: the switch fluorescence ratio is 1.95.

Take AGAGGCCCCG: the switch fluorescence ratio worked out at 1.

GTTCTATCGA: the switch fluorescence ratio is 1.02.

As for GATTAGCGGC, the switch fluorescence ratio stood at 1.05.

As for GCGGCGAAAG, the switch fluorescence ratio was determined as 0.994.

For the sequence TACCGCAGGC, the switch fluorescence ratio is 1.65.

As to AGCTTGTAGA, the switch fluorescence ratio stood at 0.989.

With CGAGTACTT, the switch fluorescence ratio was 1.22.

CCAAGAAGTG: the switch fluorescence ratio was found to be 1.08.

Consider AGTATCCTTG, for which the switch fluorescence ratio worked out at 0.985.

For the sequence CTAGCCAGTT, the switch fluorescence ratio is 0.985.

On to TGCGTTCCAA, for which the switch fluorescence ratio came out at 1.03.

Take GTGTGCGCCT: the switch fluorescence ratio was found to be 1.02.

For CTCTCGAGCC, the switch fluorescence ratio came to 1.05.

AGCCTCAGG: the switch fluorescence ratio is 1.06.

With TCAATGCCCT, the switch fluorescence ratio was found to be 1.03.

For the sequence CGTACACATA, the switch fluorescence ratio came to 1.07.

For GACGGGATCG, the switch fluorescence ratio amounted to 0.832.

TTCCACGTTC: the switch fluorescence ratio was determined as 1.06.

Consider CAATTGGTGG, for which the switch fluorescence ratio is 0.915.

Take CGAATACCTC: the switch fluorescence ratio was determined as 1.1.

Take ATCAGATTCA: the switch fluorescence ratio was 1.01.

Take CGGAGCTAAT: the switch fluorescence ratio worked out at 4.14.

Take CGACCCAAAG: the switch fluorescence ratio was determined as 1.02.

Consider TGGTACTTCA, for which the switch fluorescence ratio is 1.04.

As to CGCTAACTTT, the switch fluorescence ratio stood at 1.1.

Regarding TTGGCAGCGT, the switch fluorescence ratio is 1.05.

For AACGGCCGAC, the switch fluorescence ratio was determined as 1.06.

In the case of CGCAGTACCA, the switch fluorescence ratio was found to be 1.84.

On to AGGGGGTCTC, for which the switch fluorescence ratio turned out to be 1.

AAACCTGCGA: the switch fluorescence ratio turned out to be 1.25.

Regarding ACGATGCTTG, the switch fluorescence ratio was determined as 1.02.

For the sequence ATGCGAGTTA, the switch fluorescence ratio was 0.995.

For the sequence GCAGGTACGG, the switch fluorescence ratio came out at 1.01.

Consider GCCATTTCGT, for which the switch fluorescence ratio was 0.964.

Take AATGGAGTGC: the switch fluorescence ratio came to 0.987.

With AGTAAATATG, the switch fluorescence ratio was determined as 1.02.

For AAGTCTTTTG, the switch fluorescence ratio stood at 1.02.

With ACACCGATT, the switch fluorescence ratio amounted to 1.04.

On to TTTAGTTGCA, for which the switch fluorescence ratio amounted to 0.999.

Consider TCCATTTAGT, for which the switch fluorescence ratio turned out to be 1.

As to CGGCGAAGTA, the switch fluorescence ratio worked out at 0.953.

On to AGATGTGTCA, for which the switch fluorescence ratio is 0.948.

On to GAAATATGGA, for which the switch fluorescence ratio was 0.994.

Take ATATCAAAT: the switch fluorescence ratio is 1.03.

Turning to TGTCTGCAGA, the switch fluorescence ratio worked out at 1.01.

With TAGACTATTG, the switch fluorescence ratio worked out at 1.01.

On to AACATCAGGT, for which the switch fluorescence ratio stood at 1.02.

Regarding TGTGAATTTT, the switch fluorescence ratio turned out to be 1.03.

Turning to ATGACGGGTA, the switch fluorescence ratio worked out at 0.949.

CTCGCATGAA: the switch fluorescence ratio worked out at 1.77.

As to CAGCCATGTT, the switch fluorescence ratio was found to be 0.966.

For CGACTAGCGG, the switch fluorescence ratio came out at 1.03.

Take CAGGATACTA: the switch fluorescence ratio was 0.992.

On to TTTTCTGGGC, for which the switch fluorescence ratio worked out at 1.05.

As for AGCGGTCTTG, the switch fluorescence ratio was found to be 1.02.

Regarding AGAAGGCCAT, the switch fluorescence ratio was determined as 1.07.

ATGTTTAAGA: the switch fluorescence ratio came to 1.01.

CAGAGAGGGG: the switch fluorescence ratio stood at 1.03.

ACAGTTAGTT: the switch fluorescence ratio was found to be 1.02.

Consider TGATACATCA, for which the switch fluorescence ratio was found to be 0.972.

Turning to GGGTGATAAA, the switch fluorescence ratio was determined as 0.985.

Turning to AGGTTCATGG, the switch fluorescence ratio worked out at 1.

With GGAGAGCGGA, the switch fluorescence ratio worked out at 0.958.

Consider ATTCACTTGT, for which the switch fluorescence ratio is 1.04.

Regarding GCACCCCCAC, the switch fluorescence ratio was found to be 1.39.

With TTGGTTTTA, the switch fluorescence ratio amounted to 1.02.

On to AAGAGAGTAG, for which the switch fluorescence ratio was determined as 0.983.

Turning to TTGGCATGT, the switch fluorescence ratio turned out to be 1.01.

With TTGTTGATTG, the switch fluorescence ratio is 0.986.

For ATTGCTAGTA, the switch fluorescence ratio was 0.984.

In the case of TTCCATTGTC, the switch fluorescence ratio stood at 1.

With ATAATCATGT, the switch fluorescence ratio stood at 0.97.

TTCGTTCCCT: the switch fluorescence ratio is 1.

On to CAGTTGGGTG, for which the switch fluorescence ratio amounted to 1.01.

For TGCAAGGAGT, the switch fluorescence ratio stood at 0.997.

TTGGGCTGCA: the switch fluorescence ratio was 1.05.

Turning to GGCCCTTTAG, the switch fluorescence ratio is 1.02.

With ACAAAGAGGT, the switch fluorescence ratio was determined as 0.977.

In the case of TATTGTGGCC, the switch fluorescence ratio worked out at 1.05.

With GCTAGAAGGA, the switch fluorescence ratio is 0.979.

Take ACTGCCGCCA: the switch fluorescence ratio was 1.06.

Consider TCTTTAGTCG, for which the switch fluorescence ratio was determined as 0.924.

TTCTGTTTAA: the switch fluorescence ratio amounted to 0.971.

Turning to AGACTTTAT, the switch fluorescence ratio was found to be 0.995.

With GATGAGTATT, the switch fluorescence ratio is 1.

For GGGACACTTT, the switch fluorescence ratio was 0.962.

With GTTTAAGCAA, the switch fluorescence ratio came to 1.09.

Regarding GACTAGTT, the switch fluorescence ratio was found to be 1.02.

For the sequence GGTTAGGATA, the switch fluorescence ratio came to 1.02.

For GTCTTTTGG, the switch fluorescence ratio turned out to be 1.

With ATACTCCTGT, the switch fluorescence ratio turned out to be 1.03.

Take CCATAAAGTG: the switch fluorescence ratio was 1.05.

As for CCCCCTGTGG, the switch fluorescence ratio is 2.57.

As for AATTAAGGCT, the switch fluorescence ratio was found to be 1.01.

GGGCTACTTA: the switch fluorescence ratio was determined as 0.978.

TTGAGTGGCA: the switch fluorescence ratio is 1.02.

As for TGAACGCAAG, the switch fluorescence ratio is 1.73.

Take GCTTGTCTTT: the switch fluorescence ratio is 1.03.

As to GAATGCGT, the switch fluorescence ratio was 1.03.

CATCATGCTA: the switch fluorescence ratio was found to be 1.17.

TAGTTTCTCT: the switch fluorescence ratio was found to be 0.989.

For AGTGTAGATC, the switch fluorescence ratio worked out at 1.12.

Regarding GGAGACGGAG, the switch fluorescence ratio was found to be 1.02.

Regarding TCTAATCTTC, the switch fluorescence ratio worked out at 0.981.

The record behind these values is the supplement of paper PMC10126150.
